Reference: PubChem BioAssay (NCATS)
Inconclusive results, whose numbers are uncertain, are shown with a selection of clear calls. Potencies of inconclusive entries are left out as doubtful fits. Active and inactive are the calls of the source. The call rests on the fitted dose curve; in most records, active means well fitted curve in the direction sought with a large enough effect; inconclusive means small, poorly fitted or top-dose-only effect, or another doubt; inactive means no such curve, though single readings can be large; an effect the other way counts as inactive or inconclusive.

Assays:
[1] = biological target: Rap guanine nucleotide exchange factor 3 (Homo sapiens) (UniProt O95398); experiment: Confirmatory qHTS for antagonist of cAMP-regulated guanine nucleotide exchange factor 3 (EPAC1) (AID 1645880); conditions: EPAC1 Rap1B-BODIPY-GDP exchange, fluorescence; activity, negative = inhibition: at 115 µM (top of the series); further: nearly all actives have a fitted effect of over 55% in size;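 on activity, negative = inhibition: plate controls were DMSO only for no effect and full effect of the ATA control for full effect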
Summary of the method: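 Nucleotide exchange uses 100 nM EPAC1, 250 nM RAP1B-BODIPY-GDP and 50 uM GDP, with compounds in a concentration-titration series. After 5 min at room temperature, fluorescence (480 nm ex/540 nm em) is read every 5 min for 30 min. Data are normalized to control ATA and DMSO.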

[2] = biological target: Rap guanine nucleotide exchange factor 4 (Homo sapiens) (UniProt Q8WZA2); experiment: Confirmatory qHTS for agonist of cAMP-regulated guanine nucleotide exchange factor 4 (EPAC2) (AID 1645884); conditions: EPAC2 GEF activity, Rap1B-BODIPY-GDP fluorescence; activation: at 154 µM (top of the series), percent relative to cAMP agonist control;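 further: nucleotide exchange releases bodipy-GDP from Rap1 and this lowers its fluorescence; nearly all actives have a fitted effect of over 65% in size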; on activation: on the % scale 0 is the no-effect control and ±100 the full control effect
[3] = biological target: Rap guanine nucleotide exchange factor 4 (Homo sapiens) (UniProt Q8WZA2); experiment: Confirmatory qHTS for antagonist of cAMP-regulated guanine nucleotide exchange factor 4 (EPAC2) (AID 1645885); conditions: EPAC2 Rap1B-BODIPY-GDP exchange fluorescence, biochemical; activity change, negative = inhibition: at 12.7 µM (top of the series) unless noted; series mostly up to 114 µM; further: nearly all actives have a fitted effect of over 25% in size; on activity change, negative = inhibition: on the % scale 0 is the no-effect control and ±100 the full control effect
Potency means the concentration at half of the fitted maximal effect; tags describe the fitted curve by direction and shape.

Chain of UniProt Q8WZA2 (Q8WZA2 whole entry, looked up): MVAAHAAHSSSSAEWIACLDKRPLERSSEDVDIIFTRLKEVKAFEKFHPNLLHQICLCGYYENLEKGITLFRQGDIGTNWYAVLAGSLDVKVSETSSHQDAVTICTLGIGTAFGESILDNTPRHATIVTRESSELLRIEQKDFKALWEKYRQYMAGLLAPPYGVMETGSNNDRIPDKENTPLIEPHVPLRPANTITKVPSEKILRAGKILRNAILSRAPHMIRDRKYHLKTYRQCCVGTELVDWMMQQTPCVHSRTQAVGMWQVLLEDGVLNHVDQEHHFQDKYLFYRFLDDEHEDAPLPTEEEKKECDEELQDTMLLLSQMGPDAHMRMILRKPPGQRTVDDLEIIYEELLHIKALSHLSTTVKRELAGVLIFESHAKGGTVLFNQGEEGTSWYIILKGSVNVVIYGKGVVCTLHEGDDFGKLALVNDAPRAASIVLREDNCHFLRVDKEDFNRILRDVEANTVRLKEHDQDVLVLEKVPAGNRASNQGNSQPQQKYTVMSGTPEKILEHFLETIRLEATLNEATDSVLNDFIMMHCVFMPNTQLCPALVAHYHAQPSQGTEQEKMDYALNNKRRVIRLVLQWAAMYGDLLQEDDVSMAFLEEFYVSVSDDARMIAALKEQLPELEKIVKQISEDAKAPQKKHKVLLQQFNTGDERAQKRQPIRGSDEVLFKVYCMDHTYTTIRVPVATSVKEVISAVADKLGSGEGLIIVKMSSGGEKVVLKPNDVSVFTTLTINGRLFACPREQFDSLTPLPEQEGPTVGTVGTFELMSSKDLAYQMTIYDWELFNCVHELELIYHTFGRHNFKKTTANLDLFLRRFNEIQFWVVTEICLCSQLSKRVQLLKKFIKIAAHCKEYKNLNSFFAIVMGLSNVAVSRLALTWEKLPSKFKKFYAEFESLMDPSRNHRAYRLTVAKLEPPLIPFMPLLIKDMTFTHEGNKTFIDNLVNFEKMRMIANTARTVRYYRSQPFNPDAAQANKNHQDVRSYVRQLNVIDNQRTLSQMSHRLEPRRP
Chain of UniProt O95398 (O95398 whole entry, looked up): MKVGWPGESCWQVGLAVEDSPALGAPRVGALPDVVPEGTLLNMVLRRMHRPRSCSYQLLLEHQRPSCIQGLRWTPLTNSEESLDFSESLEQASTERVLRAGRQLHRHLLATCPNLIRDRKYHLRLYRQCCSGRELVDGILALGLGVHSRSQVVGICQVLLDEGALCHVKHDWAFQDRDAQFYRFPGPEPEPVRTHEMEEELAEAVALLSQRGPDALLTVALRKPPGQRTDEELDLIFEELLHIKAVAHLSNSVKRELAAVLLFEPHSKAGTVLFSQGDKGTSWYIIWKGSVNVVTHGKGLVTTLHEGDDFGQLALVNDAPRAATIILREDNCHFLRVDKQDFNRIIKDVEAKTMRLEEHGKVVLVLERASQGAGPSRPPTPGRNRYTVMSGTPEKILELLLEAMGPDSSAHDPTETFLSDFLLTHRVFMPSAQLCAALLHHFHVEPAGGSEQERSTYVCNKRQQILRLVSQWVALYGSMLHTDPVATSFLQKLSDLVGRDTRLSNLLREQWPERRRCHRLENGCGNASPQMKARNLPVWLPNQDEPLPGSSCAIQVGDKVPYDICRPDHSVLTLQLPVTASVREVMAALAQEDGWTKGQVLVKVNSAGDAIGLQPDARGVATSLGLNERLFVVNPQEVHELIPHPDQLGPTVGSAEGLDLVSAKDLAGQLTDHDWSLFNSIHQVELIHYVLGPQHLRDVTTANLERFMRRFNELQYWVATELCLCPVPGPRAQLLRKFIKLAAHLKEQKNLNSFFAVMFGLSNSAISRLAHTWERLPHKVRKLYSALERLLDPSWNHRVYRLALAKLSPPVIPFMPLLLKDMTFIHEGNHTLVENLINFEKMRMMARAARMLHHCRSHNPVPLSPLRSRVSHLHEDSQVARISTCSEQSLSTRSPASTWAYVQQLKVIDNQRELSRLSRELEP

**Q.** For `CCCCN(CCCC)Cc1cc(=O)oc2cc(OC)ccc12`, which Potency [1] is on record?
**A.** inconclusive [inhibitor, partial curve]

**Q.** And the Potency [2]?
**A.** inactive

**Q.** And the Potency [3]?
**A.** inconclusive [inhibitor, partial curve]

**Q.** `O=C(C1CC1)N1CCCC(c2ccc(Cl)cc2)=N1` was tested. Which Potency [1] did it give?
**A.** inconclusive [inhibitor, partial curve, poor fit]

**Q.** And the activation [2]?
**A.** inactive: -19.8% [at 17.1 µM, percent relative to cAMP agonist control]

**Q.** `CC(C)(C(=O)N1CCC1(C)C(=O)NS(=O)(=O)c1cccc(Cl)c1)c1ccccc1` (configuration not stated) was tested. Which Potency [1] did it give?
**A.** active: 75.7 µM

**Q.** What about the Potency [2] of the same compound?
**A.** inactive

**Q.** What about the Potency [3] of the same compound?
**A.** inconclusive [inhibitor, partial curve]

**Q.** With `COc1ccc(OC)c(NC(=O)CSc2nccn2-c2cc(C)cc(C)c2)c1` as the compound, how does the Potency [1] read?
**A.** inconclusive [inhibitor, partial curve, poor fit]

**Q.** And the Potency [2]?
**A.** inconclusive [activator, partial curve, poor fit]

**Q.** What does the source list for `O=C1OC(Cc2ccccc2)(c2ccccc2)c2ccccc21` (configuration not stated)?
**A.** Potency [1]: inconclusive [inhibitor, partial curve, poor fit]; Potency [2]: inconclusive [activator, partial curve, poor fit]

**Q.** `O=C(CN1C(=O)N/C(=C\c2ccccc2OCc2ccc(C(=O)O)cc2)C1=O)Nc1ccccc1F` was tested. Which Potency [1] did it give?
**A.** active: 28.2 µM

**Q.** What about the activation [2] of the same compound?
**A.** inactive: 5.81% [at 17.1 µM, percent relative to cAMP agonist control]

**Q.** With `CCCC[C@H]1COCCS(=O)(=O)N1Cc1ccc(Br)cc1` as the compound, how does the Potency [1] read?
**A.** inconclusive [inhibitor, partial curve]

**Q.** And the Potency [2]?
**A.** inactive

**Q.** For `Cc1cc(N(CCO)Cc2ccccc2)n2nc(-c3ccc(C(C)(C)C)cc3)nc2n1`, which Potency [1] is on record?
**A.** inconclusive [inhibitor, partial curve]

**Q.** What about the Potency [2] of the same compound?
**A.** inconclusive [activator, partial curve, poor fit]

**Q.** And the Potency [3]?
**A.** inactive

**Q.** How did the Potency [1] turn out when `Cc1cccc(C)c1OCC(=O)Nc1ccccc1N1CCCCC1` was run?
**A.** inactive

**Q.** And the Potency [2]?
**A.** inactive

**Q.** And the Potency [3]?
**A.** inconclusive [inhibitor, full curve, poor fit]

**Q.** Which Potency [1] does the source give for `CC(C)C(NC(=O)C1CC(=O)N(Cc2ccccc2)C1)c1nc2ccccc2[nH]1` (configuration not stated) here?
**A.** inconclusive [inhibitor, single point]

**Q.** And the Potency [2]?
**A.** inconclusive [activator, partial curve, poor fit]

**Q.** For `Cn1cc(/C=C/c2cc[n+](C)cc2)c2cc(F)ccc21`, which Potency [1] is on record?
**A.** inconclusive [inhibitor, partial curve, poor fit]

**Q.** And the Potency [2]?
**A.** inconclusive [activator, partial curve]

**Q.** Which Potency [1] does the source give for `Fc1cc(F)cc(-c2c(-c3ccccc3)ncc3ccc(F)cc23)c1` here?
**A.** inactive

**Q.** And the Potency [2]?
**A.** inconclusive [activator, single point]

**Q.** And the Potency [3]?
**A.** inconclusive [inhibitor, full curve, poor fit]

**Q.** What does the source list for `Cn1cccc1/C=C1\SC(=S)N(NC(=O)c2cccc(Cl)c2)C1=O`?
**A.** Potency [1]: inconclusive [inhibitor, full curve, poor fit]; Potency [2]: inconclusive [activator, partial curve, poor fit]

**Q.** `NC(=O)Nc1ccc(/C=C2\C=Cc3ccccc32)cc1` was tested. Which Potency [1] did it give?
**A.** inactive

**Q.** What about the Potency [2] of the same compound?
**A.** inactive

**Q.** And the Potency [3]?
**A.** active: 44.1 µM

**Q.** With `O=C(/C=C/c1ccco1)N1CCCC(c2ccccc2)C1` (configuration not stated) as the compound, how does the Potency [1] read?
**A.** active: 67.5 µM

**Q.** What about the Potency [2] of the same compound?
**A.** inactive

**Q.** What about the Potency [3] of the same compound?
**A.** inconclusive [inhibitor, partial curve, poor fit]

**Q.** For `COC(=O)c1ccc(-c2ccc(/C=N/N3C(=O)C4C5C=CC(C6CC56)C4C3=O)o2)cc1` (configuration not stated), which Potency [1] is on record?
**A.** inconclusive [inhibitor, partial curve, poor fit]

**Q.** And the activation [2]?
**A.** inactive: 1.41% [at 17.1 µM, percent relative to cAMP agonist control]

**Q.** Which Potency [1] does the source give for `O=C(Cc1ccc(Br)c2ccccc12)N/N=C/c1ccccn1` here?
**A.** inconclusive [inhibitor, partial curve, poor fit]

**Q.** What about the Potency [2] of the same compound?
**A.** inactive

**Q.** And the Potency [3]?
**A.** inconclusive [inhibitor, partial curve, poor fit]
